# Measured values from the supplement of paper PMC12355420.
# Structures can show the parent of a compound that is named as a salt. Some of the results follow. Rule as the data show it: active = 0.5 or less and inactive = the rest. Most values come without repeats; read them as rough.
# Legend:
# Conditions in all cases: 50 µM; 24 h
# [1] = test system: HeLa VPS33A reporter cells; assay: relative cell viability (CellMask signal) vs DMSO (fraction of DMSO); higher = less cytotoxic;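 also: primary screen of an FDA-approved drug library in HeLa reporter cells in 96-well format, CellMask signal normalized to DMSO-treated wells set as 1, under 0.5 deemed highly cytotoxic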
# [2] = test system: HeLa VPS33A R498W KI + HA-SDC1-FLAG; assay: relative GAG core protein HA-SDC1 amount per cell number vs DMSO (fraction of DMSO); higher = more SDC1 (GAG core protein);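 also: HA-SDC1 level read out by In-Cell Western staining with an anti-HA antibody against the N-terminal tag, screening FDA-approved library drugs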
# [3] = test system: HeLa VPS33A KO + NLuc-VPS33A R498W; assay: relative mutant VPS33A R498W amount (NanoLuc luminescence) vs DMSO (fraction of DMSO); HeLa model of a glycosaminoglycan (GAG) storage disease; KI is knock-in and KO knock-out; SDC1 is syndecan 1; higher = higher mutant VPS33A level;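 also: screen of an FDA-approved drug library, NanoLuc luminescence read after lysing the treated cells, taken as a measure of mutant VPS33A protein stability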
Structure (SMILES),relative cell viability [1],relative GAG core protein HA-SDC1 amount per cell number [2],relative mutant VPS33A R498W amount [3]
CO[C@@]1(NC(=O)C(C(=O)O)c2ccc(O)cc2)C(=O)N2C(C(=O)O)=C(CSc3nnnn3C)CO[C@@H]21 (stereo partly specified) [Moxalactam (sodium salt)],0.942,inactive: 0.907,1.89
NC(=O)c1ccc(I)c([N+](=O)[O-])c1 [Iniparib (BSI-201)],0.728,active: 0.317,1.03
CCCCCCNC(=O)n1cc(F)c(=O)[nH]c1=O [Carmofur],1.31,inactive: 0.83,0.827
CCn1c(=O)c2c(nc(/C=C/c3ccc(OC)c(OC)c3)n2C)n(CC)c1=O [Istradefylline (KW-6002)],1.15,inactive: 1.39,0.694
O=C(O)C[C@H](O)C[C@H](O)/C=C/c1c(C2CC2)nc2ccccc2c1-c1ccc(F)cc1 [Pitavastatin Calcium],1.01,inactive: 0.684,0.73
COc1ccccc1Oc1c(NS(=O)(=O)c2ccc(C(C)(C)C)cc2)nc(-c2ncccn2)nc1OCCO [Bosentan Hydrate],1.29,inactive: 0.952,1.19
O=C(O)CCCN1CCC(O[C@@H](c2ccc(Cl)cc2)c2ccccn2)CC1 [Bepotastine Besilate],1.05,inactive: 1.5,2.25
CC(C)NCC(O)COc1ccc(COCCOC(C)C)cc1 (stereo unspecified) [Bisoprolol fumarate],1.24,inactive: 0.902,1.31
O=c1c(O)c(-c2ccc(O)c(O)c2)oc2cc(O)cc(O)c12 [Quercetin],0.857,inactive: 0.856,0.435
O=C1CCCC(=O)C1C(=O)c1ccc(C(F)(F)F)cc1[N+](=O)[O-] [Nitisinone],1,inactive: 0.845,0.984
C[N+]1(C)[C@@H]2CC[C@H]1C[C@@H](OC(=O)C(O)c1ccccc1)C2 (stereo partly specified) [Homatropine Methylbromide],1.01,inactive: 0.799,1.02
Nc1ccn([C@@H]2O[C@H](CO)[C@@H](O)C2(F)F)c(=O)n1 [Gemcitabine HCl],1.05,inactive: 1.05,0.782
CNC[C@H](O)[C@@H](O)[C@H](O)[C@H](O)CO [Meglumine],1.01,inactive: 0.884,1.19
CN(CCOc1ccc(NS(C)(=O)=O)cc1)CCc1ccc(NS(C)(=O)=O)cc1 [Dofetilide],1.07,inactive: 1.03,0.865
Cc1c(C)c2c(c(C)c1O)CC[C@@](C)(CCC[C@H](C)CCC[C@H](C)CCCC(C)C)O2 [alpha-tocopherol],0.968,inactive: 1.06,1.15
CCN(CC)CCOC(=O)c1ccc(N)cc1 [Procaine],0.978,inactive: 0.916,1.33
CCCC(=O)O[C@]1(C(=O)COC(C)=O)CC[C@H]2[C@@H]3C[C@H](F)C4=CC(=O)C=C[C@]4(C)[C@@]3(F)[C@@H](O)C[C@@]21C [Difluprednate],1.14,inactive: 0.89,0.756
CC(=O)[C@@]1(O)CC[C@H]2[C@@H]3CCC4=CC(=O)CCC4=C3[C@@H](c3ccc(N(C)C)cc3)C[C@@]21C [Ulipristal],0.88,active: 0.224,0.848
O=c1ccc2ccc(O)cc2o1 [Umbelliferone],0.957,inactive: 0.805,0.87

Structure (SMILES),relative cell viability [1],relative GAG core protein HA-SDC1 amount per cell number [2],relative mutant VPS33A R498W amount [3]
CN1CCC(=C2c3ccccc3CCc3sccc32)CC1 [Pizotifen Malate],0.881,active: 0.371,0.44
CC(C)OC(=O)C(C(=O)OC(C)C)=C1SC=CS1 [Malotilate],0.892,inactive: 0.655,0.581
CN1C(C(=O)Nc2ccccn2)=C(O)c2sccc2S1(=O)=O [Tenoxicam],1.14,inactive: 0.671,1.23
C[C@H](Cn1cnc2c(N)ncnc21)OCP(=O)(O)O [Tenofovir],0.921,inactive: 1.32,1.47
Cc1onc(-c2ccccc2)c1-c1ccc(S(N)(=O)=O)cc1 [Valdecoxib],0.893,inactive: 0.864,1
OCC(CO)N[C@H]1C[C@](O)(CO)[C@@H](O)[C@H](O)[C@H]1O [Voglibose],1.01,inactive: 0.878,1.26
C[C@H]1C[C@@H]2[C@H]([C@@H](O)C[C@@]3(C)[C@H]2CC[C@]3(O)C(=O)COC(=O)CCC(=O)O)[C@@]2(C)C=CC(=O)C=C12 [Methylprednisolone Sodium Succinate],1.1,inactive: 1.16,1.07
OC[C@H]1O[C@@H](c2ccc(Cl)c(Cc3ccc(O[C@H]4CCOC4)cc3)c2)[C@H](O)[C@@H](O)[C@@H]1O,0.97,inactive: 1.23,1.28
CC(=O)OCC(=O)[C@H]1CC[C@H]2[C@@H]3CCC4=CC(=O)CC[C@]4(C)[C@H]3CC[C@]12C [Deoxycorticosterone acetate],0.908,inactive: 0.749,0.934
O=C(O)c1cccnc1Nc1cccc(C(F)(F)F)c1 [Niflumic acid],1.34,inactive: 0.911,1.59
NC(=O)C1CCCc2c1[nH]c1ccc(Cl)cc21 (stereo unspecified),0.885,inactive: 0.697,0.834
CC(C)(C#N)c1cc(Cn2cncn2)cc(C(C)(C)C#N)c1 [Anastrozole],1.17,inactive: 1.04,1.32
CCC[S+]([O-])c1ccc2[nH]c(NC(=O)OC)nc2c1 (stereo unspecified) [Albendazole Oxide],0.637,active: 0.293,0.894
CN(C)C(=O)N[C@H]1CC[C@H](CCN2CCN(c3cccc(Cl)c3Cl)CC2)CC1 [Cariprazine],1.13,inactive: 0.684,0.314
CC1(C)O[C@@H]2C[C@H]3[C@@H]4C[C@H](F)C5=CC(=O)C=C[C@]5(C)[C@@]4(F)[C@@H](O)C[C@]3(C)[C@]2(C(=O)CO)O1 [Fluocinolone Acetonide],1.04,inactive: 1.07,1.34
Cc1ccc(-n2nc(C(C)(C)C)cc2NC(=O)NCc2cc(F)ccc2Oc2ccc3c(cnn3CCO)c2)cc1 [Pexmetinib (ARRY-614)],1.09,inactive: 0.599,0.31
NC12CC3CC(CC(C3)C1)C2 [Amantadine],1.01,inactive: 0.84,1.16
c1ccc(CC2=NCCN2)cc1 [Tolazoline HCl],1.25,inactive: 0.767,0.912
